The values that follow come from the supplement of paper PMC10369915.

The other results are listed elsewhere or left out. Cut-off read from the data, not from the text of the source: active = 3.2 or more and inactive = the rest. Most of these values are background signal.
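Note: displayed peptides selected on beads carrying the immobilized SH2 domain, with library peptides lacking any tyrosine serving as negative controls.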

The first assay addresses SHP2 C-SH2 domain E139D. Kind of assay: enrichment score (SH2-bound / input frequency) (ratio); bacterial display of known human phosphotyrosine sites (pTyr-Var adds point mutants) read by sequencing; higher = stronger binding; tyrosines were phosphorylated by kinases first. Conditions: peptide library: Human pTyr.
For IPERDSRYSQPLHEE [M3K5_HUMAN_718], the enrichment score is inactive: 0.731.

On to SQPPYTDYVSTRWYR [MAK_HUMAN_159], for which the enrichment score is inactive: 1.45.

Take KLENPLDYGSAWAAA [ANDR_HUMAN_395]: the enrichment score is inactive: 0.832.

For GIQAEPLYRVVSNTI [MAP1A_HUMAN_177], the enrichment score is inactive: 0.545.

For ANADGKDYDPVAARQ [MARE1_HUMAN_124_YA], the enrichment score is inactive: 0.698.

With WASKDATYTSARTLL [MCM7_HUMAN_600], the enrichment score is inactive: 0.64.

Turning to FKPEIQVYENIHLAR [LY66F_HUMAN_281], the enrichment score is inactive: 1.13.

Turning to VTREEPIYIITEAMA [LYN_HUMAN_316_YA], the enrichment score is inactive: 0.727.

As for SDEDDEVYQVTVYQA [MDM2_HUMAN_276], the enrichment score was inactive: 1.36.

As for ANYDGKEYDPVEARQ [MARE2_HUMAN_167], the enrichment score is inactive: 0.585.

Consider ENCPDELYDIMKMCW [LYN_HUMAN_473], for which the enrichment score was inactive: 1.07.

Turning to GYYDRMDYEDDRLRD [MATR3_HUMAN_219], the enrichment score is inactive: 0.887.

In the case of EKIDDPIYGTYYVDH [MAGI2_HUMAN_362], the enrichment score was inactive: 1.29.

Take IDAGCKPYMAPERIN [MAP2K6_HUMAN_219]: the enrichment score was inactive: 1.15.

Take EEGPTLSYGRDGRSA [MATR3_HUMAN_158]: the enrichment score is inactive: 0.693.

GAADRMDYEDDRLRD [MATR3_HUMAN_219_YA]: the enrichment score is inactive: 0.727.

SCRPRSEYQPSDAPF [MAP6_HUMAN_143]: the enrichment score was inactive: 1.33.

On to EVAQVTVYQAGESDT [MDM2_HUMAN_281_YA], for which the enrichment score was inactive: 0.806.

The target in the next assay is SHP2 C-SH2 domain wild-type. The assay is described as above. Conditions: peptide library: Human pTyr.
Regarding IPERDSRYSQPLHEE [M3K5_HUMAN_718], the enrichment score is inactive: 0.734.

In the case of SQPPYTDYVSTRWYR [MAK_HUMAN_159], the enrichment score is inactive: 1.1.

KLENPLDYGSAWAAA [ANDR_HUMAN_395]: the enrichment score was inactive: 0.735.

Take GIQAEPLYRVVSNTI [MAP1A_HUMAN_177]: the enrichment score was inactive: 0.499.

For the molecule ANADGKDYDPVAARQ [MARE1_HUMAN_124_YA], the enrichment score was inactive: 0.531.

For the molecule WASKDATYTSARTLL [MCM7_HUMAN_600], the enrichment score was inactive: 0.746.

In the case of FKPEIQVYENIHLAR [LY66F_HUMAN_281], the enrichment score was inactive: 1.18.

Regarding VTREEPIYIITEAMA [LYN_HUMAN_316_YA], the enrichment score is inactive: 0.781.

Consider SDEDDEVYQVTVYQA [MDM2_HUMAN_276], for which the enrichment score was inactive: 1.19.

Take ANYDGKEYDPVEARQ [MARE2_HUMAN_167]: the enrichment score is inactive: 0.782.

As to ENCPDELYDIMKMCW [LYN_HUMAN_473], the enrichment score was inactive: 0.958.

On to GYYDRMDYEDDRLRD [MATR3_HUMAN_219], for which the enrichment score was inactive: 0.786.

For the molecule EKIDDPIYGTYYVDH [MAGI2_HUMAN_362], the enrichment score is inactive: 1.16.

On to IDAGCKPYMAPERIN [MAP2K6_HUMAN_219], for which the enrichment score is inactive: 0.967.

Consider EEGPTLSYGRDGRSA [MATR3_HUMAN_158], for which the enrichment score is inactive: 0.575.

As for GAADRMDYEDDRLRD [MATR3_HUMAN_219_YA], the enrichment score is inactive: 0.621.

SCRPRSEYQPSDAPF [MAP6_HUMAN_143]: the enrichment score is inactive: 1.05.

EVAQVTVYQAGESDT [MDM2_HUMAN_281_YA]: the enrichment score was inactive: 0.651.

Another assay concerns the target SHP2 N-SH2 domain L43F. The description is as above. To be noted: peptide library: Human pTyr.
For IPERDSRYSQPLHEE [M3K5_HUMAN_718], the enrichment score was inactive: 0.904.

Consider SQPPYTDYVSTRWYR [MAK_HUMAN_159], for which the enrichment score was inactive: 1.16.

With KLENPLDYGSAWAAA [ANDR_HUMAN_395], the enrichment score was inactive: 0.85.

Consider GIQAEPLYRVVSNTI [MAP1A_HUMAN_177], for which the enrichment score was inactive: 0.584.

Take ANADGKDYDPVAARQ [MARE1_HUMAN_124_YA]: the enrichment score was inactive: 0.908.

In the case of WASKDATYTSARTLL [MCM7_HUMAN_600], the enrichment score was inactive: 0.634.

FKPEIQVYENIHLAR [LY66F_HUMAN_281]: the enrichment score is inactive: 1.05.

Turning to VTREEPIYIITEAMA [LYN_HUMAN_316_YA], the enrichment score was inactive: 1.26.

Consider SDEDDEVYQVTVYQA [MDM2_HUMAN_276], for which the enrichment score was inactive: 1.16.

Take ANYDGKEYDPVEARQ [MARE2_HUMAN_167]: the enrichment score was inactive: 0.563.

Regarding ENCPDELYDIMKMCW [LYN_HUMAN_473], the enrichment score is inactive: 0.854.

On to GYYDRMDYEDDRLRD [MATR3_HUMAN_219], for which the enrichment score was inactive: 0.877.

As to EKIDDPIYGTYYVDH [MAGI2_HUMAN_362], the enrichment score is inactive: 1.08.

As to IDAGCKPYMAPERIN [MAP2K6_HUMAN_219], the enrichment score is inactive: 0.921.

In the case of EEGPTLSYGRDGRSA [MATR3_HUMAN_158], the enrichment score was inactive: 0.6.

As for GAADRMDYEDDRLRD [MATR3_HUMAN_219_YA], the enrichment score was inactive: 0.496.

For the molecule SCRPRSEYQPSDAPF [MAP6_HUMAN_143], the enrichment score was inactive: 1.06.

As to EVAQVTVYQAGESDT [MDM2_HUMAN_281_YA], the enrichment score was inactive: 0.638.

In another assay the target is SHP2 N-SH2 domain T42A. The assay is described as above. Conditions: peptide library: Human pTyr.
Turning to IPERDSRYSQPLHEE [M3K5_HUMAN_718], the enrichment score is inactive: 0.721.

Regarding SQPPYTDYVSTRWYR [MAK_HUMAN_159], the enrichment score is inactive: 1.08.

Take KLENPLDYGSAWAAA [ANDR_HUMAN_395]: the enrichment score was inactive: 0.888.

With GIQAEPLYRVVSNTI [MAP1A_HUMAN_177], the enrichment score was inactive: 0.481.

In the case of ANADGKDYDPVAARQ [MARE1_HUMAN_124_YA], the enrichment score is inactive: 0.624.

Regarding WASKDATYTSARTLL [MCM7_HUMAN_600], the enrichment score is inactive: 0.677.

For FKPEIQVYENIHLAR [LY66F_HUMAN_281], the enrichment score is inactive: 0.911.

For the molecule VTREEPIYIITEAMA [LYN_HUMAN_316_YA], the enrichment score is inactive: 1.29.

As to SDEDDEVYQVTVYQA [MDM2_HUMAN_276], the enrichment score is inactive: 1.16.

ANYDGKEYDPVEARQ [MARE2_HUMAN_167]: the enrichment score was inactive: 0.598.

Take ENCPDELYDIMKMCW [LYN_HUMAN_473]: the enrichment score was inactive: 0.894.

Turning to GYYDRMDYEDDRLRD [MATR3_HUMAN_219], the enrichment score is inactive: 0.65.

Regarding EKIDDPIYGTYYVDH [MAGI2_HUMAN_362], the enrichment score is inactive: 1.27.

Regarding IDAGCKPYMAPERIN [MAP2K6_HUMAN_219], the enrichment score was inactive: 1.04.

Regarding EEGPTLSYGRDGRSA [MATR3_HUMAN_158], the enrichment score was inactive: 0.557.

GAADRMDYEDDRLRD [MATR3_HUMAN_219_YA]: the enrichment score is inactive: 0.62.

In the case of SCRPRSEYQPSDAPF [MAP6_HUMAN_143], the enrichment score was inactive: 1.21.

Turning to EVAQVTVYQAGESDT [MDM2_HUMAN_281_YA], the enrichment score was inactive: 0.606.

The target of the next assay is SHP2 N-SH2 domain T52S. The assay is described as above. Conditions: peptide library: Human pTyr.
Turning to IPERDSRYSQPLHEE [M3K5_HUMAN_718], the enrichment score was inactive: 0.887.

Regarding SQPPYTDYVSTRWYR [MAK_HUMAN_159], the enrichment score was inactive: 1.36.

Take KLENPLDYGSAWAAA [ANDR_HUMAN_395]: the enrichment score is inactive: 0.877.

For the molecule GIQAEPLYRVVSNTI [MAP1A_HUMAN_177], the enrichment score was inactive: 0.531.

In the case of ANADGKDYDPVAARQ [MARE1_HUMAN_124_YA], the enrichment score was inactive: 0.787.

Regarding WASKDATYTSARTLL [MCM7_HUMAN_600], the enrichment score was inactive: 0.694.

As to FKPEIQVYENIHLAR [LY66F_HUMAN_281], the enrichment score is inactive: 1.07.

Take VTREEPIYIITEAMA [LYN_HUMAN_316_YA]: the enrichment score was inactive: 0.919.

For the molecule SDEDDEVYQVTVYQA [MDM2_HUMAN_276], the enrichment score is inactive: 1.43.

Regarding ANYDGKEYDPVEARQ [MARE2_HUMAN_167], the enrichment score is inactive: 0.637.

With ENCPDELYDIMKMCW [LYN_HUMAN_473], the enrichment score was inactive: 1.14.

Turning to GYYDRMDYEDDRLRD [MATR3_HUMAN_219], the enrichment score is inactive: 0.652.

For EKIDDPIYGTYYVDH [MAGI2_HUMAN_362], the enrichment score is inactive: 1.34.

IDAGCKPYMAPERIN [MAP2K6_HUMAN_219]: the enrichment score was inactive: 1.22.

Regarding EEGPTLSYGRDGRSA [MATR3_HUMAN_158], the enrichment score was inactive: 0.535.

As for GAADRMDYEDDRLRD [MATR3_HUMAN_219_YA], the enrichment score is inactive: 1.04.

In the case of SCRPRSEYQPSDAPF [MAP6_HUMAN_143], the enrichment score is inactive: 1.25.

As for EVAQVTVYQAGESDT [MDM2_HUMAN_281_YA], the enrichment score was inactive: 0.828.

For the next assay, the target named is SHP2 N-SH2 domain wild-type. The assay is described as above. To be noted: peptide library: Human pTyr.
Regarding IPERDSRYSQPLHEE [M3K5_HUMAN_718], the enrichment score was inactive: 0.862.

With SQPPYTDYVSTRWYR [MAK_HUMAN_159], the enrichment score is inactive: 1.21.

Turning to KLENPLDYGSAWAAA [ANDR_HUMAN_395], the enrichment score was inactive: 1.09.

For the molecule GIQAEPLYRVVSNTI [MAP1A_HUMAN_177], the enrichment score was inactive: 0.477.

On to ANADGKDYDPVAARQ [MARE1_HUMAN_124_YA], for which the enrichment score was inactive: 0.575.

WASKDATYTSARTLL [MCM7_HUMAN_600]: the enrichment score was inactive: 0.81.

As for FKPEIQVYENIHLAR [LY66F_HUMAN_281], the enrichment score was inactive: 1.63.

Regarding VTREEPIYIITEAMA [LYN_HUMAN_316_YA], the enrichment score is inactive: 0.856.

Turning to SDEDDEVYQVTVYQA [MDM2_HUMAN_276], the enrichment score was inactive: 1.56.

On to ANYDGKEYDPVEARQ [MARE2_HUMAN_167], for which the enrichment score was inactive: 0.713.

In the case of ENCPDELYDIMKMCW [LYN_HUMAN_473], the enrichment score is inactive: 1.35.

GYYDRMDYEDDRLRD [MATR3_HUMAN_219]: the enrichment score is inactive: 0.747.

With EKIDDPIYGTYYVDH [MAGI2_HUMAN_362], the enrichment score is inactive: 1.06.

Take IDAGCKPYMAPERIN [MAP2K6_HUMAN_219]: the enrichment score is inactive: 1.05.

In the case of EEGPTLSYGRDGRSA [MATR3_HUMAN_158], the enrichment score is inactive: 0.541.

GAADRMDYEDDRLRD [MATR3_HUMAN_219_YA]: the enrichment score is inactive: 0.692.

Regarding SCRPRSEYQPSDAPF [MAP6_HUMAN_143], the enrichment score was inactive: 1.29.

As to EVAQVTVYQAGESDT [MDM2_HUMAN_281_YA], the enrichment score is inactive: 0.658.
